Like-named read-outs stand apart in the source and are kept apart here.
What was measured:
[1] = system: KC-0122:BaF3 EGFR-L858R/T790M/C797S; conditions: read-out: cell proliferation inhibition IC50 (μM) KC-0122; 72 h, CCK-8
[2] = system: KC-0122:BaF3 EGFR-L858R/T790M/C797S; test: cells; conditions: KC-0122, 72 h, read-out: cell proliferation inhibition IC50 (μM) KC-0122, 72 h, CCK-8
[3] = system: KC-0116:BaF3 EGFR-Del19/T790M/C797S; test: cells; conditions: KC-0116, 72 h
[4] = system: KC-0116:BaF3 EGFR-Del19/T790M/C797S; conditions: read-out: cell proliferation inhibition IC50 (μM) KC-0116
[5] = read-out: cell proliferation inhibition IC50 (μM) KC-0116, 72 h, CCK-8

IC50 [1] | IC50 [2] | IC50 [3, 5] | SMILES | IC50 [4] | IC50 ([3]; read-out: cell proliferation inhibition IC50 (μM) KC-0116)
< 0.1 µM | 0.1 to 1 µM | 0.1 to 1 µM | CN1CCN(c2ccc(Nc3nc(NCC4(O)CCOCC4)c4c(C(=O)c5ccc(F)cc5)c[nH]c4n3)cc2)CC1 [Example 14] |  | 
 |  |  | C=CC(=O)Nc1cc(Nc2nccc(-c3cn(C)c4ccccc34)n2)c(OC)cc1N(C)CCN(C)C [Osimertinib, reference compound] | 1.74 µM | 1 to 2 µM
 | 0.1 to 1 µM | 0.1 to 1 µM | CN1CCN(c2ccc(Nc3nc(N[C@H]4CCN(C(=O)C(C)(C)C)C4)c4c(C(=O)c5ccc(F)cc5)c[nH]c4n3)cc2)CC1 [Example 53] |  | 
 | 0.1 to 1 µM | 0.1 to 1 µM | CN1CCN(c2ccc(Nc3nc(NC4(CO)CC4)c4c(C(=O)c5ccc(F)cc5)c[nH]c4n3)cc2)CC1 [Example 10] |  | 
 | < 0.1 µM | < 0.1 µM | CN(C)CCNc1nc(Nc2ccc(N3CCN(C)CC3)cc2)nc2[nH]cc(C(=O)c3ccc(F)cc3)c12 [Example 13] |  | 
 | 0.1 to 1 µM | 0.1 to 1 µM | C=CC(=O)N1CC[C@H](Nc2nc(Nc3ccc(N4CCN(C)CC4)cc3)nc3[nH]cc(C(=O)c4ccc(F)cc4F)c23)C1 [Example 44] |  | 
 | < 0.1 µM | < 0.1 µM | CCN1CCN(c2ccc(Nc3nc(N[C@H]4CC[C@@H](CO)CC4)c4c(C(=O)c5ccc(F)cc5)c[nH]c4n3)cc2)CC1 [Example 104] |  | 
 | 0.1 to 1 µM | 0.1 to 1 µM | CN1CCN(c2ccc(Nc3nc(N[C@H]4CC[C@@H](CO)CC4)c4c(C(=O)c5ccc(F)cc5)c[nH]c4n3)cc2F)CC1 [Example 103] |  | 
 | 0.1 to 1 µM | < 0.1 µM | CN1CCN(c2ccc(Nc3nc(NC45CC6CC(C4)C(O)C(C6)C5)c4c(C(=O)c5ccc(F)cc5)c[nH]c4n3)cc2)CC1 (stereo not drawn) [Example 71] |  | 
 | 0.1 to 1 µM | 0.1 to 1 µM | C=CC(=O)N1CC[C@H](Nc2nc(Nc3ccc(N4CCN(C)CC4)cc3)nc3[nH]cc(C(=O)c4ccc(F)cc4)c23)C1 [Example 27] |  | 
